{"source": "paper PMC4336329", "about": "(PLoS ONE, 2015)", "note": "Hit rate of the full screen: of about 310,000 compounds, about 14,000 (4.5%) showed an effect of 50% or more. Effects have a minus sign here. The list shows a part of the results.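 Also: peak tail current of the secondary pulse compared with the same well before compound.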", "data": [{"target": "human ether-à-go-go-related gene (hERG) potassium channel (human, UniProt Q12809)", "sequence (Q12809 whole entry, looked up)": "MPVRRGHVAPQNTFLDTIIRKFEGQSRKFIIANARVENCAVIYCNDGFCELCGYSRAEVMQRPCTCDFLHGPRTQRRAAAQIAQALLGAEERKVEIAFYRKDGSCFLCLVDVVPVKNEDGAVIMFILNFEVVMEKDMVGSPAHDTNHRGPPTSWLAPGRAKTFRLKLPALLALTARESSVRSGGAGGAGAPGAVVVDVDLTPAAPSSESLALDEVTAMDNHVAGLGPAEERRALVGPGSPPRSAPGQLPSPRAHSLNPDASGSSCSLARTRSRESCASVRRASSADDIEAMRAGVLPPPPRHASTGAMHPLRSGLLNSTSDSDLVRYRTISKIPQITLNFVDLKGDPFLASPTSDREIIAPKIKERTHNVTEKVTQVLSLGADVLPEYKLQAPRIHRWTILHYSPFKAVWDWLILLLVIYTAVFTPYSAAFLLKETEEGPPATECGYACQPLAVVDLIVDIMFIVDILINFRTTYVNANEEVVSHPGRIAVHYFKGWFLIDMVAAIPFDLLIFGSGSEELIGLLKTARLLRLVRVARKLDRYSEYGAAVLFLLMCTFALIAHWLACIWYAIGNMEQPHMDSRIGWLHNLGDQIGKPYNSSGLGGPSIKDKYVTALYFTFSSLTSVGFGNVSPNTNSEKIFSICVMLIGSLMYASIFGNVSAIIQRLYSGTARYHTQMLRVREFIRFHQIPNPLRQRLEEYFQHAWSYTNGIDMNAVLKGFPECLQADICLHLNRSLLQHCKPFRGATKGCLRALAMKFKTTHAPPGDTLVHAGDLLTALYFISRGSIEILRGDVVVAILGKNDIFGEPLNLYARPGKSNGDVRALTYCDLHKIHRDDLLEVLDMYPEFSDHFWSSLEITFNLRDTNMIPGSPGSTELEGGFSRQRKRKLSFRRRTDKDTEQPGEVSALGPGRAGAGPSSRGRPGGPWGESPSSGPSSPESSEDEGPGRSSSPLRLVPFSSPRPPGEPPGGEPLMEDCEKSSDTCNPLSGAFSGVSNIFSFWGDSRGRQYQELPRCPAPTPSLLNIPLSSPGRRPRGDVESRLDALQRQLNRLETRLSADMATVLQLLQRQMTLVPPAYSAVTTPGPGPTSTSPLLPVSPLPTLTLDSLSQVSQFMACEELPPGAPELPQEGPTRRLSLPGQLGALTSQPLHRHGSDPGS", "test": "primary screen, population patch clamp on CHO cells stably expressing hERG", "units": {"hERG current change (%, negative = inhibition) at 10uM": "%"}, "values": [{"molecule": "CCOc1ccc(CNC(=O)Cn2nc(C)c3c(C)n(-c4ccc(C)cc4)nc3c2=O)cc1", "hERG current change (%, negative = inhibition) at 10uM": -13.2}, {"molecule": "COC(=O)NC1(C(=O)O)CCCC1", "hERG current change (%, negative = inhibition) at 10uM": -0.802}, {"molecule": "N/C(=N\\OC(=O)c1cccc(Br)c1)c1ccc(Br)cc1", "hERG current change (%, negative = inhibition) at 10uM": 6.21}, {"molecule": "O=C(NC(=S)Nn1cnc2c(cnn2-c2ccccc2)c1=O)c1ccccc1", "hERG current change (%, negative = inhibition) at 10uM": 15.7}, {"molecule": "N#Cc1ccsc1NC(=O)c1cnccn1", "hERG current change (%, negative = inhibition) at 10uM": -12.3}, {"molecule": "Cc1ccc(N(C(=O)c2nsc(Cl)c2Cl)C(C(=O)NC2CCCC2)c2ccc(O)cc2)cc1C", "note": "(centres unmarked)", "hERG current change (%, negative = inhibition) at 10uM": 9.52}, {"molecule": "Cc1ccc(S(=O)(=O)CC(C)(O)CS(=O)(=O)c2ccc(C)cc2)cc1", "hERG current change (%, negative = inhibition) at 10uM": -0.571}, {"molecule": "Cc1nc2c(c(C)nn2-c2ccccc2)c(C)c1CCC(=O)Nc1ccc(CN2CCCC2)cc1", "hERG current change (%, negative = inhibition) at 10uM": -61}, {"molecule": "COc1ccc(NC(=O)C(CC(=O)O)Cc2ccccc2)cc1", "note": "(centres unmarked)", "hERG current change (%, negative = inhibition) at 10uM": 5.36}, {"molecule": "O=C(O)COc1ccccc1/C=N/NC(=O)CNC(=O)c1ccc(F)cc1", "hERG current change (%, negative = inhibition) at 10uM": 2.24}, {"molecule": "CCCn1c(SC(C(=O)Nc2cccc(OC)c2)c2ccccc2)nc2ccccc2c1=O", "note": "(centres unmarked)", "hERG current change (%, negative = inhibition) at 10uM": 2.72}, {"molecule": "CC(C)N=C(NC#N)SCC(=O)NC(C)(C)C", "hERG current change (%, negative = inhibition) at 10uM": 5.68}, {"molecule": "O=C(c1ccc2n[nH]nc2c1)N1CCN(c2ccc(C(F)(F)F)cn2)CC1", "hERG current change (%, negative = inhibition) at 10uM": -26.7}, {"molecule": "COc1ccc(C)cc1N(C)C(=O)Cc1c(C(=O)O)n(C)c2ccccc12", "hERG current change (%, negative = inhibition) at 10uM": 14.1}, {"molecule": "Nc1nnc(SCC(=O)Nc2nnc(-c3ccccc3)o2)s1", "hERG current change (%, negative = inhibition) at 10uM": 12.1}, {"molecule": "CC(=O)Nc1ccc(N2C(=O)c3cccc4c(O)ccc(c34)C2=O)cc1", "hERG current change (%, negative = inhibition) at 10uM": 13.4}, {"molecule": "COCCCNC(=O)Cc1c(C)c2c(cc(C)c3c(C(C)(C)C)coc32)oc1=O", "hERG current change (%, negative = inhibition) at 10uM": -32.3}, {"molecule": "COc1cc(C(=O)NCC(c2cccnc2)N2CCN(c3ccccc3)CC2)cc(OC)c1OC", "note": "(centres unmarked)", "hERG current change (%, negative = inhibition) at 10uM": -17.3}, {"molecule": "CCOC(=O)Cn1nc(-c2ccc(C)cc2)ccc1=O", "hERG current change (%, negative = inhibition) at 10uM": -25.3}, {"molecule": "Cc1ccc(N=C(N)N=C(N)N)cc1", "hERG current change (%, negative = inhibition) at 10uM": 16.9}, {"molecule": "CSc1nc(Cl)cc(N2CCOCC2)n1", "hERG current change (%, negative = inhibition) at 10uM": 13.5}, {"molecule": "Cc1cccc(NC(=O)COc2ccc(-c3nn(C)c(=O)c4ccccc34)cc2)c1", "hERG current change (%, negative = inhibition) at 10uM": -28.8}, {"molecule": "O=S1(=O)C=C(Sc2nnc(-c3ccccc3)o2)c2ccccc21", "hERG current change (%, negative = inhibition) at 10uM": -16.2}, {"molecule": "CCN(CC)Cc1c(O)c(Cl)cc2c3c(c(=O)oc12)CCCC3", "hERG current change (%, negative = inhibition) at 10uM": -10.1}, {"molecule": "Cc1ccccc1NC(=O)CN1C(=O)NC2(CCCCC2)C1=O", "hERG current change (%, negative = inhibition) at 10uM": -0.562}, {"molecule": "Cc1noc(C)c1C(=O)N1CCCC(N2CCN(c3cccc(C(F)(F)F)c3)CC2)C1", "note": "(centres unmarked)", "hERG current change (%, negative = inhibition) at 10uM": -35.4}, {"molecule": "O=C(NC(=S)Nc1ccccc1N1CCCC1)c1ccco1", "hERG current change (%, negative = inhibition) at 10uM": -3.55}, {"molecule": "O=C(OCc1ccco1)c1cccnc1", "hERG current change (%, negative = inhibition) at 10uM": 7.66}, {"molecule": "COc1ccc(NC(=O)C2(c3ccccc3)CCCC2)cc1", "hERG current change (%, negative = inhibition) at 10uM": 47.3}, {"molecule": "Cc1cccc(NC(=O)CCS(=O)(=O)c2ccccc2)n1", "hERG current change (%, negative = inhibition) at 10uM": 7.86}, {"molecule": "CS(=O)(=O)N(Cc1ccc(Cl)cc1)c1ccc(C(=O)NCc2ccccn2)cc1", "hERG current change (%, negative = inhibition) at 10uM": -47}, {"molecule": "Cc1cc(C(C)(C)C)cc(S(=O)(=O)NCCc2ccncc2)c1C", "hERG current change (%, negative = inhibition) at 10uM": -18.2}, {"molecule": "COc1cc(CNCCN(C)C)ccc1OCc1c(F)cccc1Cl.Cl", "hERG current change (%, negative = inhibition) at 10uM": -19.6}, {"molecule": "N#CC1=C(N)N2C(=C(C#N)C13CCN(Cc1ccccc1)CC3)Nc1ccccc12", "hERG current change (%, negative = inhibition) at 10uM": -39.1}, {"molecule": "O=c1[nH]c(CN2CCN(c3ncccn3)CC2)nc2c(Br)cc(Br)cc12", "hERG current change (%, negative = inhibition) at 10uM": -15.9}, {"molecule": "Oc1nc(-c2ccc(Br)cc2)n2ccncc12", "hERG current change (%, negative = inhibition) at 10uM": -8.14}, {"molecule": "O=C(O)c1cc2ncc(-c3[nH]ncc3[N+](=O)[O-])cn2n1", "hERG current change (%, negative = inhibition) at 10uM": 18.2}, {"molecule": "CCN(CC(=O)NC1CCCC1)S(=O)(=O)c1ccc(Br)cc1", "hERG current change (%, negative = inhibition) at 10uM": 7.29}, {"molecule": "Cc1ccc(Oc2ncccc2/C=N/OCc2ccc(Cl)cc2Cl)cc1", "hERG current change (%, negative = inhibition) at 10uM": 14.7}, {"molecule": "Cc1ccc(-n2c(SCC(=O)Nc3ccc4c5c(cccc35)CC4)nc(O)c(C)c2=O)cc1", "hERG current change (%, negative = inhibition) at 10uM": 11}, {"molecule": "COc1cccc(/C=C/C(=O)OCC(=O)Nc2nnc(-c3ccccc3)o2)c1", "hERG current change (%, negative = inhibition) at 10uM": -8.64}, {"molecule": "CCCCn1c(N)c(N(CCOC)C(=O)COC(=O)c2cc(CCC)c(C)s2)c(=O)[nH]c1=O", "hERG current change (%, negative = inhibition) at 10uM": 4.61}, {"molecule": "COc1ccc(C2(C)CC(=O)NC2=O)cc1", "note": "(centres unmarked)", "hERG current change (%, negative = inhibition) at 10uM": 8.96}, {"molecule": "CC(=O)c1ccc(NC(=O)Nc2ccc([N+](=O)[O-])cc2)cc1", "hERG current change (%, negative = inhibition) at 10uM": 11.2}]}]}
